Measurements from a compilation of properties of binary mixtures (doi:10.1039/c0cp02169e).
Some of these densities may be calculated back from excess volumes.

Assay: xn = mol fraction of the nth substance listed
Conditions: 298.15 K, 101 kPa

BrCBr + CCCC[n+]1ccc(C)cc1.F[B-](F)(F)F
Conditions	mass density [kg/m3]
x1 = 0.0955	1228.8
x1 = 0.2106	1293
x1 = 0.28	1337.6
x1 = 0.3312	1373.6
x1 = 0.4082	1434.2
x1 = 0.4738	1492.9
x1 = 0.5399	1559.8
x1 = 0.6065	1636.9
x1 = 0.7187	1795.5
x1 = 0.8721	2098.7
x1 = 0.9289	2249
x1 = 0.9777	2401.5

BrCCCBr + CCCC[n+]1ccc(C)cc1.F[B-](F)(F)F
Conditions	mass density [kg/m3]
x1 = 0.1031	1225.8
x1 = 0.2013	1271.6
x1 = 0.2946	1319.8
x1 = 0.3753	1366.2
x1 = 0.4475	1411.7
x1 = 0.5114	1455.8
x1 = 0.5789	1506.5
x1 = 0.6308	1548.8
x1 = 0.6843	1595
x1 = 0.7329	1641.9
x1 = 0.8594	1779.9
x1 = 0.9018	1832.8
x1 = 0.9673	1922.2

CCCC[n+]1ccccc1C.F[B-](F)(F)F + BrCCCCBr
Conditions	mass density [kg/m3]
x2 = 0.0273	1211.3
x2 = 0.099	1239
x2 = 0.1874	1276
x2 = 0.2254	1292.9
x2 = 0.3109	1333.8
x2 = 0.3364	1346.5

BrCBr + CCCC[n+]1cccc(C)c1.F[B-](F)(F)F
Conditions	mass density [kg/m3]
x1 = 0.078	1220.9
x1 = 0.133	1249.6
x1 = 0.293	1347.6
x1 = 0.4706	1491.3
x1 = 0.5399	1561.3
x1 = 0.61	1642.9
x1 = 0.8044	1950.4
x1 = 0.875	2106.2
x1 = 0.9323	2259

BrCCCCBr + CCCC[n+]1cccc(C)c1.F[B-](F)(F)F
Conditions	mass density [kg/m3]
x1 = 0.0352	1196.7
x1 = 0.099	1222
x1 = 0.1915	1261.5
x1 = 0.235	1281.2
x1 = 0.4401	1385.4

CCCC[n+]1ccccc1C.F[B-](F)(F)F + BrCCCBr
Conditions	mass density [kg/m3]
x2 = 0.1088	1246.5
x2 = 0.2115	1294
x2 = 0.2977	1338.8
x2 = 0.3752	1383
x2 = 0.5766	1520.6
x2 = 0.625	1559.8

BrCCBr + CCCC[n+]1cccc(C)c1.F[B-](F)(F)F
Conditions	mass density [kg/m3]
x1 = 0.0695	1213.6
x1 = 0.122	1238.4
x1 = 0.244	1303.2
x1 = 0.331	1356.3
x1 = 0.4907	1473.2
x1 = 0.5365	1512.2

CCCC[n+]1ccccc1C.F[B-](F)(F)F + BrCCBr
Conditions	mass density [kg/m3]
x2 = 0.0923	1243.7
x2 = 0.1331	1263.6
x2 = 0.2385	1320

BrCCCBr + CCCC[n+]1cccc(C)c1.F[B-](F)(F)F
Conditions	mass density [kg/m3]
x1 = 0.0459	1201.8
x1 = 0.07	1211.9
x1 = 0.2119	1277.3
x1 = 0.3039	1325.8
x1 = 0.45	1414.8
x1 = 0.516	1460.5
x1 = 0.6317	1551.2
x1 = 0.6901	1602.9
x1 = 0.7603	1670.8

BrCCBr + CCCC[n+]1ccc(C)cc1.F[B-](F)(F)F
Conditions	mass density [kg/m3]
x1 = 0.0578	1208
x1 = 0.1307	1242.7
x1 = 0.2407	1301.4
x1 = 0.3346	1358.8
x1 = 0.4944	1476.2
x1 = 0.5618	1535.1

BrCCCCCBr + CCCC[n+]1cccc(C)c1.F[B-](F)(F)F
Conditions	mass density [kg/m3]
x1 = 0.0443	1198.7
x1 = 0.1295	1230.1
x1 = 0.1668	1244.4
x1 = 0.238	1272.9

BrCCCCBr + CCCC[n+]1ccc(C)cc1.F[B-](F)(F)F
Conditions	mass density [kg/m3]
x1 = 0.0554	1203.9
x1 = 0.1026	1222.7
x1 = 0.1904	1259.9
x1 = 0.267	1294.7
x1 = 0.3436	1332.2
x1 = 0.4165	1370.5
x1 = 0.4806	1406.8
x1 = 0.5085	1423.3

BrCCCCCBr + CCCC[n+]1ccc(C)cc1.F[B-](F)(F)F
Conditions	mass density [kg/m3]
x1 = 0.0869	1213.6
x1 = 0.1655	1243
x1 = 0.2389	1272

CCCC[n+]1ccccc1C.F[B-](F)(F)F + BrCBr
Conditions	mass density [kg/m3]
x2 = 0.1614	1283.5
x2 = 0.2193	1317.9
x2 = 0.2722	1352
x2 = 0.376	1428
x2 = 0.4742	1513.3
x2 = 0.5351	1574.7
x2 = 0.6016	1650.4
x2 = 0.7315	1833.8
x2 = 0.7945	1945.2
x2 = 0.844	2046.2
x2 = 0.8995	2177
x2 = 0.9535	2327.9
